In the supplement of paper PMC10126150:
Sequences with one replicate were seen in a single cluster, so their values are uncertain.

Tested on: ATP
Assay: switch fluorescence ratio, 500 uM ATP over buffer (Cy3 cluster intensity, sum of 5 cycles each) (fold (ratio)); higher = stronger signal-on switching upon ATP binding; sequences stand for … in TCGTCGGCAGCGTCAGATGTGTATAAGAGACAGTTTTTTTTTTTTTTTTTTTTTTTTT…TC
Conditions: aptamer strand: ATP DNA aptamer (quencher-CACCTGGGGGAGTATTGCGGAGGAAGG + anchor), 100 nM annealed; ATP concentration: 500 uM; one replicate
Summary of the method: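 Cy3-labelled switching-strand clusters on a modified Illumina MiSeq flow-cell were annealed to 100 nM quencher-labelled ATP aptamer and imaged first in selection buffer, then after 15 min with 500 uM ATP at 22 °C. NaOH stripping and re-annealing separated each of five buffer/ATP cycles, and clusters outside 100-1000 RFU were excluded. The fluorescence ratio sums target-cycle Cy3 intensity over buffer-cycle Cy3 intensity per cluster and averages it per switch-domain sequence.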
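Also: ATP exposure 15 min at 22 °C before imaging.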

Row | Sequence | switch fluorescence ratio
1 | CCATTAGTTC | 0.974
2 | AGGGCGGCAC | 0.992
3 | TTGGTAGAAC | 1
4 | CCAAATGAAC | 1.03
5 | TGCGACGACC | 1.33
6 | AGTAAAGAAA | 1.01
7 | GGTAATTGGC | 1.03
8 | TATTGCGACG | 1.05
9 | ACGTGCCTGT | 0.986
10 | TGCTTGTTGT | 0.991
11 | GTCCAACCTT | 0.982
12 | TTTAGAACAT | 0.989
13 | CTGACAGATC | 1.09
14 | TGGGCGTCC | 1
15 | GGCGGGTGAT | 1.37
16 | TTTTATCAAA | 1.03
17 | ATCGGACCAT | 1.04
18 | TTACTGTGGT | 0.956
19 | ACACGTGCTG | 1.03
20 | CCGAGTAATT | 3.75
21 | TACCTCGTTG | 1.03
22 | CGCGTCGAAC | 1.08
23 | TAGGCAACT | 1.06
24 | AGTTCGGAAG | 1.01
25 | AATCATTCTT | 1.01
26 | GGGGTGCCGC | 1.03

Row | Sequence | switch fluorescence ratio
27 | CGGCTAATA | 1.11
28 | GATTAAAAGC | 1.06
29 | TGTGACGCCG | 0.985
30 | TGAGACCTGC | 0.902
31 | GTCAGGTA | 1
32 | ATGCCATATT | 0.972
33 | ATACGTGTGT | 1.01
34 | TCTGAGATGT | 1.01
35 | TTGGCTTCCG | 1.08
36 | TCATTTTAT | 0.941
37 | GGTGTCCCGG | 1.03
38 | TAGTTGGGTG | 0.977
39 | CTTAAAATAA | 1.01
40 | ATAAGGGACC | 1.05
41 | AAGCCGGGCG | 1.12
42 | TCGCCTCTTT | 1.01
43 | TTAAGAAAA | 0.994
44 | CTTATGGGGC | 0.922
45 | GTTTCCCTGA | 0.993
46 | CCCCGAGCCA | 0.991
47 | GCAAAGCCCT | 0.99
48 | CAAAGGTCAA | 1.02
49 | TTCGAATGTT | 1
50 | CTACCATACG | 1.39
51 | CGTACCTCAC | 1.5
52 | TGTTCCATGT | 0.953

Row | Sequence | switch fluorescence ratio
53 | TACAGTGCAT | 1.05
54 | ATAGCTAGAG | 1.03
55 | CTCGGGAAGT | 0.983
56 | CTAACCTAGA | 1.06
57 | TAAAGAATAG | 0.983
58 | GGGTCGTTCG | 0.999
59 | AAATAGGAAG | 1.02
60 | TTCATAGTCT | 1.03
61 | GACGCGGACC | 2.74
62 | AGTCCGGGTC | 0.976
63 | TAGTTGTGCA | 0.976
64 | TGATGAGTAC | 0.974
65 | CGGCTATGGA | 1.02
66 | GCATTTAAAC | 1.04
67 | CTTGTGTTTA | 1.01
68 | CTTGGTGACT | 1.02
69 | AACGCGGCG | 1.04
70 | GGCTTGGGAC | 0.987
71 | TGAGGTTTCG | 1
72 | TGAGGAGAAC | 1.18
73 | TAAAATTAA | 0.981
74 | TCATGATCAT | 0.994
75 | TATGAGTGCT | 1.04
76 | GCCATAAATG | 1.01
77 | CTATTGGCGA | 1.02
